Experimental data reported in the BET-seq Pho4 binding data (Le et al. 2018).
This is one part of the list. Values were computed here from the reads of four pooled replicates and scatter widely.

What follows are sequences tested against T1, Pho4 (S. cerevisiae) (UniProt P07270) (assay: relative binding free energy (BET-seq); higher = weaker binding). Details: reference: library average.
T1 sequence: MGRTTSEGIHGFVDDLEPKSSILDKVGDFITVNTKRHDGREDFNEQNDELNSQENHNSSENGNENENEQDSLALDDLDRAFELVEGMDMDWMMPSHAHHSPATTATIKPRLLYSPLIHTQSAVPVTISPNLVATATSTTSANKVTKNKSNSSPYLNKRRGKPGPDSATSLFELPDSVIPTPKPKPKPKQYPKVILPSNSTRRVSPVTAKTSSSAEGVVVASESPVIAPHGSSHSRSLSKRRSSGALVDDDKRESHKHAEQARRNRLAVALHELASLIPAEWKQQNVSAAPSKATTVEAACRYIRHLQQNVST

Sequence | relative binding free energy [kcal/mol]
TGCGGCACGTGGACAG | -0.07
AGGTACACGTGTGGGA | 0.15
AGGATCACGTGTATGG | 0.13
GCGGGCACGTGGTAGT | -0.09
GGGAGCACGTGCCTGG | -0.12
AGACCCACGTGGGGGG | -0.29
TTGGGCACGTGCGATT | -0.16
CGTTGCACGTGTTAAT | 0
GGATTCACGTGAGTTA | 0.41
TGTCGCACGTGAGACG | 0.27
GTTGACACGTGGGCGA | -0.07
TGTCTCACGTGTCGGG | 0.22
GCTGACACGTGCGTGT | 0.04
TATTTCACGTGGCTAA | 0.19
AGTGTCACGTGAGCGT | 0.21
TGCGTCACGTGGTGAA | 0
ATAACCACGTGTTGTG | -0.15
AATCGCACGTGTCGGG | 0.04
GGATGCACGTGAGGGC | 0.33
GCGGTCACGTGGTCAG | 0.07
TGGAGCACGTGGTCGA | -0.11
TCAGTCACGTGTTGTG | 0.07
TGTTGCACGTGGCTTG | -0.04

Sequence | relative binding free energy [kcal/mol]
GATTTCACGTGGGCGG | 0.21
ATGTGCACGTGGGGAT | -0.18
GTATACACGTGACTTG | 0.21
GGTATCACGTGCAATT | 0.2
AGGAGCACGTGATTTT | 0.07
TGATCCACGTGGGCTG | -0.03
TCGTTCACGTGTGTAT | 0.3
TAGAGCACGTGGGGGA | -0.27
AACGTCACGTGGTTGA | 0.07
TGCCACACGTGGGGGG | -0.09
AAGGTCACGTGTCGGG | 0.08
TGTTACACGTGTGAGT | 0.31
GGAAGCACGTGAGAAT | 0.39
CTGTTCACGTGGGTCA | 0.03
GTATACACGTGGGTTA | -0.08
GTCTTCACGTGTGAGT | 0.24
TCGTACACGTGGGGCT | 0
GTGTTCACGTGAGTCC | 0.47
CTTACCACGTGTGTGG | 0.05
TAATTCACGTGGTTGG | 0.32
TGCGACACGTGAGTTT | 0.35
TAGTTCACGTGGTGAG | 0.28
ATGGACACGTGTGTGG | 0

Sequence | relative binding free energy [kcal/mol]
TACGTCACGTGTAGGG | 0.08
GTAGGCACGTGTAGGA | 0.05
GGTTGCACGTGGTGCC | -0.09
TTAGTCACGTGTGGCT | 0.08
GTAAGCACGTGCTTTG | -0.13
TTGGCCACGTGAATTT | 0.27
TCGAGCACGTGCGTGG | -0.09
GGGTGCACGTGGTATC | -0.07
GTTTTCACGTGTAAGA | 0.28
TGAGACACGTGGGAAA | 0.04
TCTTTCACGTGGGAGG | 0.21
GGTGGCACGTGATGGG | 0.13
GTTCGCACGTGTTTTA | 0.09
TGTGGCACGTGCATGG | -0.26
GACATCACGTGGTTGT | 0.23
GGGCGCACGTGAGGTC | 0.06
TGTAGCACGTGGGGTC | -0.25
TGCAACACGTGTTTAG | 0.05
TGCTACACGTGGGGTG | -0.14
ACAATCACGTGTGGTT | 0.21
AATTTCACGTGGAGAT | 0.23
AAGATCACGTGTATGT | 0.17
TAGGTCACGTGTTTGT | 0.1

Sequence | relative binding free energy [kcal/mol]
GTGGACACGTGGACTG | 0.01
TGCGACACGTGTGGAT | 0.02
AAGTACACGTGGTGCT | 0.09
GGTGACACGTGAAGGA | 0.22
CGTTTCACGTGGCGTA | 0.08
TAGCGCACGTGGGGTT | -0.28
TTTTACACGTGAGCGC | 0.41
TTGCTCACGTGCGTTA | 0.21
CGGGGCACGTGCGGTT | -0.12
ATACTCACGTGATGGT | 0.27
GCGTGCACGTGCGGAG | -0.08
TGAGACACGTGGGTGA | -0.08
TGATACACGTGGGTAG | -0.19
GAGCTCACGTGGGAGG | 0.2
ATTTACACGTGTTGTC | 0.27
AGGAGCACGTGGAGGT | -0.04
TTGGCCACGTGGGTTC | -0.11
GTTATCACGTGTTGTA | 0.14
TCGGTCACGTGGGCGT | 0.03
GTTGGCACGTGCATGG | -0.15
TAAGGCACGTGAAGGC | 0.26
AGTGGCACGTGATGAT | 0.12
CGGTGCACGTGGCAGG | -0.19

Sequence | relative binding free energy [kcal/mol]
TTAAGCACGTGAAGCG | 0.04
TATTTCACGTGAGTTG | 0.43
TTTAGCACGTGGGATT | -0.18
AACGACACGTGTGGGG | 0.1
AGTTGCACGTGGTCTC | -0.09
AGCGGCACGTGATGTG | 0.11
GAGCTCACGTGTGAGG | 0.32
GGTGTCACGTGCGGCT | 0.06
ACGTGCACGTGAGTAG | -0.02
GGGTTCACGTGTGGCT | 0.42
AGTTTCACGTGGGTGT | 0.13
AGGTTCACGTGTGAAA | 0.28
GAAAGCACGTGGATTT | 0.07
GAATTCACGTGAAGTG | 0.21
CTAGTCACGTGGGAAG | -0.05
AGGGACACGTGCAAGG | -0.12
AGGGGCACGTGGCAGT | -0.13
GATTTCACGTGCCGGG | 0.42
TTTTACACGTGGTGCA | 0.03
AAGTGCACGTGCAGTG | 0.04
CGGTGCACGTGAGGAA | 0.31
ATATGCACGTGTTACT | -0.07
TGGTACACGTGGAGGT | 0.07
